This is one part of the list.
System: T1, Caupolican (Caup) homeodomain DNA-binding domain
T1 sequence: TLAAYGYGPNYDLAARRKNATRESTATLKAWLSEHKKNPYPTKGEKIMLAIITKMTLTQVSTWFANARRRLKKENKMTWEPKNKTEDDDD
Experiment: PBM E-score (8-mer, recovered from the published 9-mer minima) (E-score (dimensionless, -0.5 to 0.5)); Drosophila protein; higher = stronger relative binding preference, active = 0.31 or more
How it was run: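 Caup's homeodomain DNA-binding domain (residues 214-303) was made by in vitro transcription and translation and applied at 100 nM to custom-designed protein binding microarrays. Each value is an enrichment score that gives relative binding preference for a short DNA word, with higher meaning stronger. The 8-mer values were recovered from published 9-mer scores, each of which was the minimum of its two constituent 8-mer scores. A cutoff of 0.31 marks candidate sites.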

| Sequence | PBM E-score |
| --- | --- |
| CGCGTAAG | inactive: -0.0298 |
| ATTCGCCG | inactive: -0.0854 |
| GAGACTGC | inactive: -0.163 |
| GCGCTTCA | inactive: -0.139 |
| AAGACCAA | inactive: 0.0212 |
| AAGGGGCG | inactive: -0.257 |
| CCACGTAG | inactive: -0.211 |
| CGTTAAAG | inactive: -0.033 |
| CGTGCTTC | inactive: -0.01 |
| TCGTGTCA | active: 0.328 |
| ACTGATTA | inactive: 0.183 |
| CCCTGCGC | inactive: -0.299 |
| ACGTTAAA | ≥ 0.117 |
| AAACTATG | inactive: 0.0743 |
| AGCCCAGA | ≥ -0.11 |
| CTAAAAAC | inactive: -0.00686 |
| CCTAGCCG | inactive: -0.217 |
| GCGCGTCC | inactive: -0.197 |
| AACTTATC | inactive: 0.0353 |
| ATCACCCC | inactive: -0.0463 |
| GAGGTTCA | inactive: -0.0903 |
| CGCACCTA | inactive: -0.108 |
| TACCCGAA | inactive: 0.0484 |
| ACATATCG | inactive: 0.238 |

| Sequence | PBM E-score |
| --- | --- |
| CGTACTTC | inactive: -0.0253 |
| ATAGGCAG | inactive: 0.0479 |
| ACAACAGA | inactive: 0.255 |
| GCGGCTCA | inactive: -0.263 |
| ATGTGGTG | inactive: 0.118 |
| CGTTATAG | inactive: 0.0727 |
| CAGCGGCC | inactive: -0.246 |
| AAACCGAT | inactive: -0.04 |
| AACCCCCA | inactive: -0.194 |
| CATTTCTC | inactive: 0.0178 |
| GCACTGCC | inactive: -0.167 |
| TGAGAAAA | inactive: -0.00743 |
| AGAGTGAA | inactive: 0.0458 |
| GGCTAGAA | inactive: -0.139 |
| ACGCCCCT | ≥ -0.11 |
| AGAGGCGC | inactive: -0.141 |
| ACGACCAC | inactive: 0.0805 |
| ACCAAGAG | inactive: -0.0676 |
| GGAATACA | inactive: 0.243 |
| ACGTTCCT | ≥ 0.0171 |
| CTAACAAG | inactive: 0.287 |
| AGCGGATA | inactive: -0.153 |
| ATCGGGGA | ≥ -0.0407 |
| CGGCTCTC | inactive: -0.209 |

| Sequence | PBM E-score |
| --- | --- |
| GAGCTCAA | inactive: -0.094 |
| CGGCGCCC | inactive: -0.213 |
| CTTTGGGA | inactive: -0.0957 |
| AGGATCCT | ≥ 0.0286 |
| CTGTACAG | inactive: 0.164 |
| ATGCTTGC | inactive: -0.0802 |
| ACATTACG | inactive: 0.136 |
| CCCCACAA | inactive: -0.128 |
| CGCCTCTA | inactive: -0.07 |
| CCGACAGA | inactive: 0.0333 |
| GCAACAAA | inactive: 0.15 |
| CGAAGCTA | inactive: -0.0431 |
| AGGTAACC | inactive: -0.0119 |
| CGGATTCC | inactive: -0.138 |
| GCTGGAAC | inactive: -0.0888 |
| GCACGTGC | inactive: 0.0135 |
| ACACCAAA | inactive: 0.177 |
| CCCGATCC | inactive: -0.127 |
| AATAGTTG | inactive: 0.116 |
| GCATTTAC | inactive: 0.0558 |
| AAAACAAA | inactive: 0.167 |
| CGTCACGC | inactive: -0.101 |
| CACGCCAC | inactive: -0.0888 |
| AAGCACGA | ≥ 0.116 |

| Sequence | PBM E-score |
| --- | --- |
| CTGATTCC | inactive: -0.0155 |
| GAGGGCGA | inactive: -0.295 |
| CAGAGGTC | inactive: -0.186 |
| ACATTGAT | inactive: 0.267 |
| GGGAAAAA | inactive: -0.0666 |
| AGCCCACC | inactive: -0.253 |
| AGTTGCCC | inactive: -0.0405 |
| GCCCGACC | inactive: -0.192 |
| CGCGCCTC | inactive: -0.155 |
| AGTAATGA | inactive: 0.11 |
| AGTAGATA | inactive: 0.131 |
| AAGTCAGT | inactive: 0.0955 |
| AGGAAGTC | inactive: -0.0996 |
| AAGGCAAG | inactive: -0.0316 |
| ACAGCGCG | inactive: 0.0201 |
| ATCTGTGC | inactive: 0.0661 |
| CGAGGAGA | inactive: -0.0988 |
| GATCATGC | inactive: 0.00593 |
| AATCGGTG | inactive: 0.0507 |
| AATAGCAG | inactive: 0.0384 |
| AGGACACC | inactive: 0.0321 |
| ATTCTATC | inactive: 0.0882 |
| GTTCCAAA | inactive: 0.0475 |
| CTAGGGTA | inactive: -0.0446 |

| Sequence | PBM E-score |
| --- | --- |
| ACCTCGAC | inactive: -0.00397 |
| ACCGCTGA | inactive: -0.0193 |
| GGCATATA | inactive: 0.0927 |
| AGGTGGGA | inactive: -0.134 |
| AATAAACA | inactive: 0.266 |
| GACTCCGA | inactive: -0.0915 |
| GAGAAATC | inactive: 0.00048 |
| ACGTCTCC | inactive: -0.0273 |
| CGGCGACA | inactive: 0.0775 |
| ACGTTGTG | inactive: 0.0355 |
| AATGGGAG | inactive: -0.0486 |
| TGGGTAAA | inactive: -0.088 |
| CCAAACGC | inactive: -0.146 |
| ACCCGATG | inactive: -0.111 |
| GCACAGCC | inactive: -0.176 |
| TAAAAACA | inactive: 0.261 |
| AAGCCCGT | inactive: -0.157 |
| AAGACTAG | inactive: 0.0385 |
| GTCTTGAA | inactive: 0.0106 |
| CTTCAGCA | inactive: -0.0659 |
| ATCTTTGA | inactive: -0.00898 |
| GCCGACAA | inactive: 0.129 |
| CCAAGGGC | inactive: -0.185 |
| AAACGTTA | inactive: 0.0884 |

| Sequence | PBM E-score |
| --- | --- |
| ACACCAGA | ≥ 0.166 |
| CCTTCCCC | inactive: -0.25 |
| CGTAACCA | inactive: 0.105 |
| CGGAACCG | inactive: -0.0984 |
| GATACATA | active: 0.321 |
| CGCATGTC | active: 0.348 |
| TCAGCTAA | inactive: 0.0391 |
| CTAATCTC | inactive: 0.088 |
| GACCTGAA | inactive: -0.0723 |
| CACGAGAG | inactive: -0.0619 |
| AATGGGAT | inactive: -0.0665 |
| CAGCTAGC | inactive: -0.115 |
| CGCGCGAG | inactive: -0.195 |
| AGAACAAA | inactive: 0.191 |
| AATTATAT | inactive: 0.177 |
| AAAGTGGG | inactive: -0.137 |
| CTGACTGA | inactive: -0.123 |
| AATGGACT | inactive: 0.0218 |
| AGTCCTGA | inactive: -0.0446 |
| GCTCTATA | inactive: -0.0191 |
| CGGTTTAC | inactive: 0.0112 |
| TTTAGAAA | inactive: 0.0742 |
| CGATCTCC | inactive: -0.138 |

From the supplement of paper PMC3724861
